# This is one part of the list.
# How the values were obtained:
# [1] = system: HSkMC (human skeletal muscle cells); assay: cytotoxicity call (relative viability < 0.9); conditions: 10 µM
# [2] = system: HepG2; assay: cytotoxicity call (relative viability < 0.9); conditions: 10 µM
# [3] = system: S. aureus RN4220; assay: growth inhibition call (relative growth <= 0.2); conditions: 50 µM
Compound,cytotoxicity call [1],cytotoxicity call [2],growth inhibition call [3]
OC[C@H]1CCCN1CC1CC1,inactive,inactive,inactive
COc1ccc(CNC(=O)C[C@@H]2CC[C@H]3[C@H](COc4ccc(NC(=O)C5CC5)cc4C(=O)N3C)O2)cc1,inactive,inactive,inactive
Cc1noc(C)c1NC(=O)N(C)C[C@@H]1Oc2c(NS(C)(=O)=O)cccc2C(=O)N([C@H](C)CO)C[C@H]1C,inactive,inactive,inactive
CC(=O)O.Cc1c(-c2ccc(O)cc2)n(Cc2ccc(OCCN3CCCCCC3)cc2)c2ccc(O)cc12,inactive,active,inactive
Nc1ccc(S(=O)(=O)Nc2ccnn2-c2ccccc2)cc1,inactive,inactive,inactive
C[C@@H]1CN([C@@H](C)CO)C(=O)c2cc(NS(=O)(=O)c3ccc(F)cc3)ccc2O[C@@H](C)CCCCO[C@H]1CN(C)Cc1ccc2c(c1)OCO2,inactive,inactive,inactive
C[C@H](CO)N1C[C@H](C)[C@@H](CN(C)Cc2ccc(Oc3ccccc3)cc2)Oc2ccc(NC(=O)CCCN(C)C)cc2CC1=O,inactive,inactive,inactive
O=C(C[C@H]1C[C@@H]2c3cc(NC(=O)Cc4ccncc4)ccc3O[C@@H]2[C@@H](CO)O1)NCCN1CCCCC1,inactive,inactive,inactive
CC1OC1P(=O)([O-])[O-].[Ca+2] (centres undefined),inactive,inactive,inactive
C[C@H]1CN([C@@H](C)CO)C(=O)Cc2cc(NS(=O)(=O)c3cn(C)cn3)ccc2O[C@H]1CN(C)Cc1ccncc1,inactive,inactive,inactive
C[C@H](CO)N1C[C@H](C)[C@H](CN(C)C(=O)CCC(F)(F)F)OCCCC[C@H](C)Oc2ccc(NS(=O)(=O)c3cccs3)cc2C1=O,inactive,inactive,inactive
COCC(=O)N1C[C@@H](C)[C@@H](OC)CN(C)C(=O)c2cc(NC(=O)Nc3cccc(F)c3)ccc2OC[C@@H]1C,inactive,inactive,inactive
C[C@H](CO)N1C[C@H](C)[C@H](CN(C)Cc2ccncc2)Oc2c(NC(=O)Nc3cccc4ccccc34)cccc2C1=O,inactive,inactive,inactive
COCC(=O)Nc1ccc2c(c1)OC[C@H](C)N(C(=O)Cc1ccccn1)C[C@H](C)[C@@H](OC)CN(C)C2=O,inactive,inactive,inactive
CCC(=O)N[C@H]1C=C[C@H](CC(=O)OC)O[C@@H]1CO,inactive,inactive,inactive
C/C=C/c1cccc(-c2nc(C(=O)NCc3ccccc3)cc3c2[C@@H](CCO)N([S@](=O)C(C)(C)C)C3)c1,inactive,inactive,inactive
C[C@@H]1CN([C@@H](C)CO)S(=O)(=O)c2ccc(-c3cncnc3)cc2O[C@H]1CN(C)C(=O)NC1CCCC1,inactive,inactive,inactive
Cc1ccc(-c2ccc3c(c2)O[C@H](CN(C)C(=O)Nc2ccc(C(F)(F)F)cc2)[C@@H](C)CN([C@H](C)CO)S3(=O)=O)cc1,inactive,inactive,inactive
CCCc1nc(C(C)(C)O)c(C(=O)O)n1Cc1ccc(-c2ccccc2-c2nn[nH]n2)cc1,inactive,inactive,inactive
C[C@@H]1CN([C@@H](C)CO)C(=O)Cc2cc(NS(=O)(=O)c3ccc(F)cc3)ccc2O[C@H]1CN(C)S(C)(=O)=O,inactive,inactive,inactive
COc1ccc2c3c(n(c2c1)C)[C@H](CO)N(C[C@]13CN(C1)C(=O)CN(C)C)C(=O)CN(C)C,inactive,inactive,inactive
C[C@@H]1CCCCO[C@H](CN(C)S(=O)(=O)c2ccccc2)[C@H](C)CN([C@H](C)CO)C(=O)c2cc(NS(=O)(=O)c3cn(C)cn3)ccc2O1,inactive,inactive,inactive
CC(C)=CCC/C(C)=C/CO,inactive,inactive,inactive
C[C@H](CO)N1C[C@H](C)[C@@H](CN(C)CC2CC2)OCCCC[C@H](C)Oc2ccc(NS(C)(=O)=O)cc2C1=O,inactive,inactive,inactive
CNC(=O)N1CCC(C(N)=O)CC1,inactive,inactive,inactive
Cc1noc(C)c1S(=O)(=O)N(C)C[C@@H]1OCCCC[C@@H](C)Oc2ccc(N(C)C)cc2C(=O)N([C@@H](C)CO)C[C@@H]1C,inactive,inactive,inactive
CN(C)C(=O)C[C@H]1CC[C@@H](NC(=O)C2CCOCC2)[C@H](CO)O1,inactive,inactive,inactive
C[C@@H]1CN([C@H](C)CO)C(=O)c2cc(N(C)C)ccc2O[C@@H](C)CCCCO[C@@H]1CN(C)CC1CCCCC1,inactive,inactive,inactive
